Reference: the supplement of paper PMC9446081
Hit rate of the full screen: of about 39,000 compounds, about 220 (0.56%) showed activity. The list shows a part of the results.

tested on: Escherichia coli K-12 BW25113; assay: relative growth (OD600 normalised to plate interquartile mean) (fraction); higher = less growth inhibition, active = 0.2 or less; conditions: 50 µM; LB; incubation time: overnight (16-24 h)
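Also: static incubation at 37 °C against the wild-type strain, values averaged over two biological replicates.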

Compound	relative growth
CN1C(=O)c2cc(NC(=O)c3ccc(F)cc3)ccc2OC[C@H]2O[C@@H](CC(=O)N3CCOCC3)CC[C@H]21	inactive: 0.956
Cc1ccc(Nc2c(-c3ccccc3)nc3ccccn23)cc1	inactive: 1.01
C[C@@H]1CN([C@@H](C)CO)C(=O)c2cc(NC(=O)Cn3cnnn3)ccc2O[C@H]1CN(C)C(=O)Nc1ccc2c(c1)OCO2	inactive: 1
C[C@H](CO)N1C[C@H](C)[C@@H](CN(C)C(=O)Nc2ccc(C(F)(F)F)cc2)OCCCC[C@H](C)Oc2ccc(NC(=O)Nc3ccc(C(F)(F)F)cc3)cc2C1=O	inactive: 1.05
Cc1ccc(S(=O)(=O)N2C[C@@H](O)COC[C@H]3O[C@@H](CC(=O)NCCN4CCCCC4)CC[C@@H]32)cc1	inactive: 1.04
COc1ccc(CNC(=O)N(C)C[C@H]2OCc3ccccc3-c3c(n(C)c4ccccc34)C(=O)N([C@H](C)CO)C[C@@H]2C)cc1	inactive: 1.01
C[C@@H]1CN([C@H](C)CO)C(=O)c2ccccc2-c2ccccc2CO[C@@H]1CN(C)S(=O)(=O)c1ccc(C(F)(F)F)cc1	inactive: 1.03
C[C@@H]1CN([C@@H](C)CO)C(=O)c2cc(NC(=O)C3CCCCC3)ccc2O[C@@H](C)CCCCO[C@H]1CN(C)S(=O)(=O)c1ccccc1	inactive: 1.01
C[C@@H]1CN([C@@H](C)CO)C(=O)c2cc(-c3cncnc3)cnc2O[C@H]1CN(C)C(=O)CN1CCOCC1	inactive: 0.956
CO[C@H]1CN(C)C(=O)c2cc(NC(=O)C3CC3)ccc2OC[C@@H](C)N(C(=O)CN2CCOCC2)C[C@@H]1C	inactive: 0.978
C[C@H](CO)N1C[C@H](C)[C@H](CN(C)C(=O)Nc2ccc(F)cc2)Oc2ccc(NC(=O)Cn3cnnn3)cc2CC1=O	inactive: 0.986
C[C@H]1CN([C@@H](C)CO)C(=O)c2cccc(NC(=O)Nc3ccc(F)cc3)c2O[C@H]1CN(C)S(=O)(=O)c1cn(C)cn1	inactive: 0.994
COc1ccc(-c2cnc3c(c2)C(=O)N([C@H](C)CO)C[C@H](C)[C@H](CN(C)S(=O)(=O)c2cccs2)O3)cc1	inactive: 1.01
CCCNC(=O)N1C[C@H](C)[C@@H](OC)CN(C)C(=O)c2ccc(NS(=O)(=O)CC(F)(F)F)cc2OC[C@H]1C	inactive: 0.959
C[C@@H]1CN([C@H](C)CO)C(=O)c2cc(NS(=O)(=O)c3cccs3)ccc2O[C@@H](C)CCCCO[C@H]1CN(C)C(=O)Nc1ccc(F)cc1	inactive: 1.02
C[C@H]1CN([C@@H](C)CO)S(=O)(=O)c2ccc(C#Cc3ccc(F)cc3)cc2O[C@H]1CN(C)S(=O)(=O)c1cn(C)cn1	inactive: 1.03
COc1ccc(N2C(=O)N(CCc3ccc(OC)c(OC)c3)[C@@H]3[C@@H](Cc4ccccc4)[C@H]2C(=O)N3Cc2ccccc2)cc1	inactive: 1.02
C[C@@H]1C[C@H]1C(=O)O	inactive: 0.986
COc1ccc(CN(C)C[C@H]2OCCCC[C@H](C)Oc3ccc(NC(=O)Nc4ccccc4)cc3C(=O)N([C@@H](C)CO)C[C@@H]2C)cc1	inactive: 1.01
O=C(C[C@H]1C[C@@H]2c3cc(NC(=O)NC4CCCC4)ccc3O[C@@H]2[C@@H](CO)O1)NCc1ccc(-c2ccccc2)cc1	inactive: 0.955

Compound	relative growth
COC(=O)COc1nsnc1N1CCOCC1	inactive: 0.985
COc1ccc(NC(=O)Nc2ccc3c(c2)C(=O)N([C@H](C)CO)C[C@H](C)[C@H](CN(C)S(=O)(=O)c2cccs2)OCCCC[C@@H](C)O3)cc1	inactive: 1.01
C[C@@H]1CN([C@H](C)CO)C(=O)c2cc(C#CCN(C)C)cnc2O[C@H]1CN(C)C(=O)CN1CCOCC1	inactive: 1
C[C@@H]1CN([C@@H](C)CO)C(=O)c2cc(NC(=O)Cn3cnnn3)ccc2O[C@H]1CN(C)S(=O)(=O)c1ccccc1	inactive: 0.996
Cc1ccc(S(=O)(=O)Nc2ccc3c(c2)C(=O)N([C@H](C)CO)C[C@H](C)[C@H](CN(C)C(=O)Nc2cccc4ccccc24)OCCCC[C@@H](C)O3)cc1	inactive: 1
C[C@@H]1CN([C@@H](C)CO)C(=O)c2ccccc2-c2ccccc2CO[C@H]1CN(C)C(=O)c1cc(Cl)cc(Cl)c1	inactive: 0.997
Cc1noc(C)c1S(=O)(=O)Nc1ccc2c(c1)CC(=O)N([C@@H](C)CO)C[C@H](C)[C@@H](CN(C)C(=O)Nc1ccc3c(c1)OCO3)O2	inactive: 1.04
C[C@@H]1CN([C@H](C)CO)C(=O)c2cc(C#Cc3ccccc3F)cnc2O[C@H]1CN(C)S(=O)(=O)c1ccccc1F	inactive: 1.03
O=C(C[C@@H]1CC[C@@H]2[C@H](COC[C@H](O)CN2S(=O)(=O)c2cccc(Cl)c2)O1)N1CCOCC1	inactive: 1
Cc1ccc2ccccc2n1	inactive: 1.04
CO[C@@H]1CN(C)C(=O)c2cc(NC(=O)NC(C)C)ccc2OC[C@@H](C)N(Cc2ccc(-c3ccccn3)cc2)C[C@H]1C	inactive: 1
C[C@H]1CN([C@@H](C)CO)C(=O)c2c(c3ccccc3n2C)-c2ccccc2CO[C@@H]1CN(C)C(=O)c1ccc(F)cc1	inactive: 1.04
Cc1ccc(S(=O)(=O)Nc2ccc3c(c2)C(=O)N([C@H](C)CO)C[C@H](C)[C@H](CN(C)S(=O)(=O)c2ccc(Cl)cc2)OCCCC[C@@H](C)O3)cc1	inactive: 1.01
CC(C)(O)C#Cc1ccc([C@@H]2[C@@H](CO)N3CCCCN(S(C)(=O)=O)C[C@H]23)cc1	inactive: 0.984
C[C@H](CO)N1C[C@H](C)[C@H](CN(C)C(=O)Nc2ccccc2)OCCCC[C@H](C)Oc2ccc(NS(=O)(=O)c3cccs3)cc2C1=O	inactive: 1.01
C[C@H](CO)N1C[C@H](C)[C@H](CN(C)C(=O)Nc2ccc(F)cc2)OCCCC[C@H](C)Oc2ccc(NC(=O)Cc3ccccc3)cc2C1=O	inactive: 1
C[C@H](CO)N1C[C@H](C)[C@@H](CN(C)C(=O)CN2CCOCC2)Oc2ncc(C3=CCCCC3)cc2C1=O	inactive: 0.999
CNC[C@@H]1Oc2cc(C#CC(C)(C)O)ccc2S(=O)(=O)N([C@@H](C)CO)C[C@H]1C	inactive: 1.01
C[C@@H]1CCCCO[C@H](CN(C)Cc2ccncc2)[C@@H](C)CN([C@H](C)CO)C(=O)c2cc(NC(=O)c3ccccc3)ccc2O1	inactive: 0.993
C[C@@H]1CN([C@@H](C)CO)C(=O)Cc2cc(NC(=O)Cn3cnnn3)ccc2O[C@H]1CN(C)Cc1ccc(C(=O)Nc2ccccc2N)cc1	inactive: 1.01

Compound	relative growth
COc1ccc(NC(=O)N(C)C[C@H]2Oc3ccc(NS(C)(=O)=O)cc3CC(=O)N([C@H](C)CO)C[C@H]2C)cc1	inactive: 1.02
COc1cccc(C#Cc2ccc3c(c2)O[C@H](CN(C)C(=O)CN2CCOCC2)[C@@H](C)CN([C@H](C)CO)S3(=O)=O)c1	inactive: 1.03
C[C@@H]1CCCCO[C@H](CN(C)Cc2ccc(C(F)(F)F)cc2)[C@@H](C)CN([C@H](C)CO)C(=O)c2cc(NS(=O)(=O)c3ccccc3)ccc2O1	inactive: 1.01
COCc1cn(CC[C@@H]2CC[C@@H](NC(=O)CCN3CCCCC3)[C@@H](CO)O2)nn1	inactive: 1.02
CC1=C(C(=O)O)N2C(=O)C(NC(=O)C(N)c3ccccc3)C2SC1 (stereo not given)	inactive: 1.03
COc1ccc2c(c1)C(=O)C(=O)N2	inactive: 0.974
COc1ccccc1-c1ccc2c(c1)O[C@@H](CN(C)CC1CCOCC1)[C@@H](C)CN([C@@H](C)CO)S2(=O)=O	inactive: 0.987
C[C@H](CO)N1C[C@H](C)[C@H](CN(C)S(=O)(=O)c2ccc(Cl)cc2)Oc2c(NC(=O)c3ccc(-c4nccs4)cc3)cccc2C1=O	inactive: 0.996
CO[C@@H](CN(C)S(=O)(=O)c1cccc(Cl)c1)[C@@H](C)CN([C@@H](C)CO)S(=O)(=O)c1ccc(Cl)cc1	inactive: 1
CS(=O)(=O)N1[C@@H]2c3ccc(-c4ccccc4)c(=O)n3C[C@H]1[C@H](CO)[C@H]2C(=O)NCC1CC1	inactive: 0.977
Cc1c(/C=N/O)sc2ccccc12	inactive: 0.975
Cc1noc(C)c1NC(=O)Nc1ccc2c(c1)C(=O)N([C@@H](C)CO)C[C@H](C)[C@H](CN(C)Cc1ccc(C(=O)O)cc1)OCCCC[C@@H](C)O2	inactive: 0.992
CC(C)NC(=O)Nc1ccc2c(c1)CC(=O)N([C@@H](C)CO)C[C@H](C)[C@@H](CN(C)S(=O)(=O)c1cccs1)O2	inactive: 0.981
Cc1noc(C)c1NC(=O)Nc1ccc2c(c1)C(=O)N([C@@H](C)CO)C[C@@H](C)[C@@H](CN(C)Cc1ccc(C(=O)O)cc1)OCCCC[C@H](C)O2	inactive: 1
COc1ccc(C(C)(C)N)cc1OC	inactive: 1.02
C[C@H]1CN([C@@H](C)CO)C(=O)Cc2cc(NC(=O)Cn3cnnn3)ccc2O[C@H]1CN(C)C(=O)Nc1ccc(C(F)(F)F)cc1	inactive: 0.975
C[C@@H]1CN([C@H](C)CO)C(=O)c2cccc(NC(=O)C3CCOCC3)c2O[C@H]1CN(C)S(=O)(=O)c1ccc(F)cc1	inactive: 0.983
C[C@@H]1CN([C@@H](C)CO)C(=O)Cc2cc(NC(=O)Nc3cccc4ccccc34)ccc2O[C@@H]1CN(C)C(=O)Nc1cccc2ccccc12	inactive: 0.982
C[C@@H]1CCCCO[C@@H](CN(C)C(=O)c2ccccc2)[C@@H](C)CN([C@@H](C)CO)C(=O)c2cc(NC(=O)C3CCCCC3)ccc2O1	inactive: 0.977
O=C(C[C@@H]1C=C[C@@H](NC(=O)c2ccc(F)cc2)[C@@H](CO)O1)NCc1ccncn1	inactive: 1.01
